# The list shows a part of the results.
# Tests used:
# Assay in all cases: glycan array binding signal (z-score within array); higher = stronger binding
# Conditions in all cases: glycan notation: IUPAC condensed, linker removed
# [1] = target: Neu5Ac(a2-3)Gal(b1-3)GalNAc(b1-4)[Neu5Ac(a2-8)Neu5Ac(a2-3)]Gal(b1-4)Glc
# In short: (§1)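 Glycan array data were curated from 3228 arrays in the Consortium for Functional Glycomics database and kept only where the protein sequence was available. Glycan names were converted to IUPAC-condensed notation, and columns mapping to the same glycan were averaged. The binding signal is a within-array Z-score, averaged across arrays of the same protein sequence at different concentrations or buffers and across linkers. Negative Z-scores can be read as non-binding.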
# [2] = target: Neu5Ac(a2-3)Gal(b1-3)GalNAc6S
# In short: as §1
# [3] = target: Neu5Ac(a2-3)Gal(b1-3)GlcNAc
# In short: as §1
# [4] = target: Neu5Ac(a2-3)Gal(b1-3)GlcNAc(b1-2)Man
# In short: as §1
# [5] = target: Neu5Ac(a2-3)Gal(b1-3)GlcNAc(b1-2)Man(a1-3)[GlcNAc(b1-4)][Neu5Ac(a2-3)Gal(b1-3)GlcNAc(b1-2)Man(a1-6)]Man(b1-4)GlcNAc(b1-4)GlcNAc
# In short: as §1
# [6] = target: Neu5Ac(a2-3)Gal(b1-3)GlcNAc(b1-2)Man(a1-3)[Neu5Ac(a2-3)Gal(b1-3)GlcNAc(b1-2)Man(a1-6)]Man(b1-4)GlcNAc(b1-4)GlcNAc
# In short: as §1
# [7] = target: Neu5Ac(a2-3)Gal(b1-3)GlcNAc(b1-3)Gal(b1-3)GlcNAc
# In short: as §1
# [8] = target: Neu5Ac(a2-3)Gal(b1-3)GlcNAc(b1-3)Gal(b1-4)GlcNAc
# In short: as §1
# [9] = target: Neu5Ac(a2-3)Gal(b1-3)GlcNAc(b1-3)GalNAc
# In short: as §1
# [10] = target: Neu5Ac(a2-3)Gal(b1-3)GlcNAc(b1-4)Gal(b1-4)Glc
# In short: as §1
# [11] = target: Neu5Ac(a2-3)Gal(b1-3)GlcNAc(b1-6)GalNAc
# In short: as §1
# [12] = target: Neu5Ac(a2-3)Gal(b1-3)GlcNAc6S
# In short: as §1
# [13] = target: Neu5Ac(a2-3)Gal(b1-3)[Fuc(a1-4)]GlcNAc
# In short: as §1
# [14] = target: Neu5Ac(a2-3)Gal(b1-3)[Fuc(a1-4)]GlcNAc(b1-3)Gal(b1-3)[Fuc(a1-4)]GlcNAc
# In short: as §1
# [15] = target: Neu5Ac(a2-3)Gal(b1-3)[Fuc(a1-4)]GlcNAc(b1-3)Gal(b1-4)[Fuc(a1-3)]GlcNAc
# In short: as §1
# [16] = target: Neu5Ac(a2-3)Gal(b1-3)[GlcNAc(b1-6)]GalNAc
# In short: as §1
# [17] = target: Neu5Ac(a2-3)Gal(b1-3)[Neu5Ac(a2-3)Gal(b1-4)]GlcNAc
# In short: as §1
# [18] = target: Neu5Ac(a2-3)Gal(b1-3)[Neu5Ac(a2-6)]GalNAc
# In short: as §1
# [19] = target: Neu5Ac(a2-3)Gal(b1-3)[Neu5Ac(a2-6)]GlcNAc(b1-3)[Fuc(a1-3)[Gal(b1-4)]GlcNAc(b1-6)]Gal(b1-4)Glc
# In short: as §1
# [20] = target: Neu5Ac(a2-3)Gal(b1-3)]Neu5Ac(a2-3)Gal(b1-4)]GlcNAc
# In short: as §1
# [21] = target: Neu5Ac(a2-3)Gal(b1-4)Glc
# In short: as §1
# [22] = target: Neu5Ac(a2-3)Gal(b1-4)GlcNAc
# In short: as §1
# [23] = target: Neu5Ac(a2-3)Gal(b1-4)GlcNAc(b1-2)Man
# In short: as §1
# [24] = target: Neu5Ac(a2-3)Gal(b1-4)GlcNAc(b1-2)Man(a1-3)[GlcNAc(b1-4)][Neu5Ac(a2-3)Gal(b1-4)GlcNAc(b1-2)Man(a1-6)]Man(b1-4)GlcNAc(b1-4)GlcNAc
# In short: as §1
# [25] = target: Neu5Ac(a2-3)Gal(b1-4)GlcNAc(b1-2)Man(a1-3)[Neu5Ac(a2-3)Gal(b1-4)GlcNAc(b1-2)Man(a1-6)]Man(b1-4)GlcNAc(b1-4)GlcNAc
# In short: as §1
# [26] = target: Neu5Ac(a2-3)Gal(b1-4)GlcNAc(b1-2)Man(a1-3)[Neu5Ac(a2-3)Gal(b1-4)GlcNAc(b1-2)Man(a1-6)]Man(b1-4)GlcNAc(b1-4)[Fuc(a1-6)]GlcNAc
# In short: as §1
# [27] = target: Neu5Ac(a2-3)Gal(b1-4)GlcNAc(b1-2)Man(a1-3)[Neu5Ac(a2-6)Gal(b1-4)GlcNAc(b1-2)Man(a1-6)]Man(b1-4)GlcNAc(b1-4)GlcNAc
# In short: as §1
# [28] = target: Neu5Ac(a2-3)Gal(b1-4)GlcNAc(b1-2)[Neu5Ac(a2-3)Gal(b1-4)GlcNAc(b1-4)]Man(a1-3)[GlcNAc(b1-4)][Neu5Ac(a2-3)Gal(b1-4)GlcNAc(b1-2)[Neu5Ac(a2-3)Gal(b1-4)GlcNAc(b1-6)]Man(a1-6)]Man(b1-4)GlcNAc(b1-4)GlcNAc
# In short: as §1
# [29] = target: Neu5Ac(a2-3)Gal(b1-4)GlcNAc(b1-2)[Neu5Ac(a2-3)Gal(b1-4)GlcNAc(b1-4)]Man(a1-3)[GlcNAc(b1-4)][Neu5Ac(a2-3)Gal(b1-4)GlcNAc(b1-4)Man(a1-6)]Man(b1-4)GlcNAc(b1-4)GlcNAc
# In short: as §1
# [30] = target: Neu5Ac(a2-3)Gal(b1-4)GlcNAc(b1-2)[Neu5Ac(a2-3)Gal(b1-4)GlcNAc(b1-6)]Man(a1-6)[Neu5Ac(a2-3)Gal(b1-4)GlcNAc(b1-2)Man(a1-3)]Man(b1-4)GlcNAc(b1-4)GlcNAc
# In short: as §1
# [31] = target: Neu5Ac(a2-3)Gal(b1-4)GlcNAc(b1-2)[Neu5Ac(a2-3)Gal(b1-4)GlcNAc(b1-6)]Man(a1-6)[Neu5Ac(a2-3)Gal(b1-4)GlcNAc(b1-2)Man(a1-3)][GlcNAc(b1-4)]Man(b1-4)GlcNAc(b1-4)GlcNAc
# In short: as §1
# [32] = target: Neu5Ac(a2-3)Gal(b1-4)GlcNAc(b1-3)Gal
# In short: as §1
# [33] = target: Neu5Ac(a2-3)Gal(b1-4)GlcNAc(b1-3)Gal(b1-3)GlcNAc
# In short: as §1
# [34] = target: Neu5Ac(a2-3)Gal(b1-4)GlcNAc(b1-3)Gal(b1-4)GlcNAc
# In short: as §1
# [35] = target: Neu5Ac(a2-3)Gal(b1-4)GlcNAc(b1-3)Gal(b1-4)GlcNAc(b1-2)Man(a1-3)[Neu5Ac(a2-3)Gal(b1-4)GlcNAc(b1-3)Gal(b1-4)GlcNAc(b1-2)Man(a1-6)]Man(b1-4)GlcNAc(b1-4)GlcNAc
# In short: as §1
# [36] = target: Neu5Ac(a2-3)Gal(b1-4)GlcNAc(b1-3)Gal(b1-4)GlcNAc(b1-3)Gal(b1-4)GlcNAc
# In short: as §1
# [37] = target: Neu5Ac(a2-3)Gal(b1-4)GlcNAc(b1-3)Gal(b1-4)GlcNAc(b1-3)Gal(b1-4)GlcNAc(b1-2)Man(a1-3)[Neu5Ac(a2-3)Gal(b1-4)GlcNAc(b1-3)Gal(b1-4)GlcNAc(b1-3)Gal(b1-4)GlcNAc(b1-2)Man(a1-6)]GalNAc
# In short: as §1
# [38] = target: Neu5Ac(a2-3)Gal(b1-4)GlcNAc(b1-3)Gal(b1-4)GlcNAc(b1-3)GalNAc
# In short: as §1
# [39] = target: Neu5Ac(a2-3)Gal(b1-4)GlcNAc(b1-3)Gal(b1-4)GlcNAc(b1-3)[Neu5Ac(a2-3)Gal(b1-4)GlcNAc(b1-3)Gal(b1-4)GlcNAc(b1-6)]GalNAc
# In short: as §1
# [40] = target: Neu5Ac(a2-3)Gal(b1-4)GlcNAc(b1-3)Gal(b1-4)GlcNAc(b1-6)[Gal(b1-3)]GalNAc
# In short: as §1
# [41] = target: Neu5Ac(a2-3)Gal(b1-4)GlcNAc(b1-3)Gal(b1-4)[Fuc(a1-3)]GlcNAc
# In short: as §1
# [42] = target: Neu5Ac(a2-3)Gal(b1-4)GlcNAc(b1-3)GalNAc
# In short: as §1
# [43] = target: Neu5Ac(a2-3)Gal(b1-4)GlcNAc(b1-3)[Neu5Ac(a2-3)Gal(b1-4)GlcNAc(b1-6)]GalNAc
# In short: as §1
# [44] = target: Neu5Ac(a2-3)Gal(b1-4)GlcNAc(b1-6)GalNAc
# In short: as §1
# [45] = target: Neu5Ac(a2-3)Gal(b1-4)GlcNAc(b1-6)[Gal(b1-3)]GalNAc
# In short: as §1
binder,measurement,setting,value
AMA (Arum maculatun) (protein) MAKLLLLLLLPAIVGLAVPRSAAAVGSNYMLSGETLNTDGRLTNGELTLIMQVDCNLVLYHGGWQSNTANNGRDCKLTLTDFGELVIKSGTGSTVWSSGSKQSMKGNYAAVVHPEGRLVIYGPSVFKINPSGAGLNGLPLRNIPLTNNMLFSGQVLYGDGTLSARNHKLVMQGDCNMVLYGGKYGWQSNTHGNGKYCFAMLTHKGELVIRDDDFKSVWSSKSSSKQGDYVFILQDDSLAIIYGPAVFSTGSKKMISMVTN,glycan array binding signal (z-score),[1],-0.209
same,glycan array binding signal (z-score),[2],-0.212
same,glycan array binding signal (z-score),[3],-0.195
same,glycan array binding signal (z-score),[4],-0.125
same,glycan array binding signal (z-score),[5],-0.21
same,glycan array binding signal (z-score),[6],-0.217
same,glycan array binding signal (z-score),[7],-0.204
same,glycan array binding signal (z-score),[8],-0.217
same,glycan array binding signal (z-score),[9],-0.212
same,glycan array binding signal (z-score),[10],-0.204
same,glycan array binding signal (z-score),[11],-0.213
same,glycan array binding signal (z-score),[12],-0.2
same,glycan array binding signal (z-score),[13],-0.218
same,glycan array binding signal (z-score),[14],-0.207
same,glycan array binding signal (z-score),[15],-0.226
same,glycan array binding signal (z-score),[16],-0.219
same,glycan array binding signal (z-score),[17],0.441
same,glycan array binding signal (z-score),[18],-0.211
same,glycan array binding signal (z-score),[19],-0.218
same,glycan array binding signal (z-score),[20],-0.217
same,glycan array binding signal (z-score),[21],-0.196
same,glycan array binding signal (z-score),[22],-0.215
same,glycan array binding signal (z-score),[23],-0.201
same,glycan array binding signal (z-score),[24],-0.219
same,glycan array binding signal (z-score),[25],-0.169
same,glycan array binding signal (z-score),[26],0.584
same,glycan array binding signal (z-score),[27],-0.203
same,glycan array binding signal (z-score),[28],-0.218
same,glycan array binding signal (z-score),[29],-0.22
same,glycan array binding signal (z-score),[30],-0.212
same,glycan array binding signal (z-score),[31],-0.222
same,glycan array binding signal (z-score),[32],-0.22
same,glycan array binding signal (z-score),[33],-0.21
same,glycan array binding signal (z-score),[34],-0.217
same,glycan array binding signal (z-score),[35],-0.113
same,glycan array binding signal (z-score),[36],-0.215
same,glycan array binding signal (z-score),[37],0.009
same,glycan array binding signal (z-score),[38],-0.221
same,glycan array binding signal (z-score),[39],-0.188
same,glycan array binding signal (z-score),[40],-0.182
same,glycan array binding signal (z-score),[41],-0.224
same,glycan array binding signal (z-score),[42],-0.204
same,glycan array binding signal (z-score),[43],-0.217
same,glycan array binding signal (z-score),[44],-0.221
same,glycan array binding signal (z-score),[45],-0.21

# Reference: the supplement of paper PMC8728848
